Source: ChEMBL document CHEMBL4888484, “Replenishing the malaria drug discovery pipeline: Screening and hit evaluation of the MMV Hit Generation Library 1 (HGL1) against asexual blood stage Plasmodium falciparum ,using a nano luciferase reporter read-out” (2022)
The campaign covered roughly 4,800 compounds. About 410 (8.5%) showed an effect of 50% or more. The list shows a part of the results.

Each compound was assayed on Plasmodium falciparum (assay: Confirmatory screen in NF54 pLDH assay, in single point, at 2uM, 72h). Settings: timepoint 72 hour.
Type: functional, Erythrocyte

| SMILES | % Inhibition [%] |
| --- | --- |
| CN1CCC(n2ncc3[nH]c(-c4ccc(C(F)(F)F)cc4)nc32)CC1 | 99 |
| CCCC(=O)N1CCC(OC(=O)c2cnc3ccc(F)cc3c2)CC1 | -10 |
| CCN1C(=O)c2ccc(NC(=O)c3ccncc3)c3cccc1c23 | 2 |
| O=C(N[C@@H](Cn1nccn1)c1ccccc1)c1cc(Br)ccc1Cl | 75 |
| Cc1cc(=O)n(CC(=O)N2CCC(C)CC2)c(-c2ccc(F)cc2)n1 | 4 |
| O=S1(=O)CCC(NCCC2CCCO2)c2cc(F)c(F)cc21 (stereo not given) | -1 |
| O=C(C[C@H]1CCN(C(=O)c2ccc(F)cc2)C1)N1CCOCC1 | -6 |
| CN(C)C(=O)CN1CCc2cccc(NC(=O)OC(C)(C)C)c21 | 12 |
| CC(C)NC(=O)N(C)Cc1ccc(F)cc1 | 8 |
| O=C(NCC1CC1)c1cn[nH]c1-c1ccccc1 | 1 |
| CC[C@H](C)S(=O)(=O)NC(=O)Cc1c(C)noc1C | 10 |
| CC(C)CC[C@@H](CCNC1CCN(C)CC1)c1ccc(Cl)cc1 | 83 |
| NC(=O)c1nnn(CC(=O)c2ccc(Cl)cc2)c1C(N)=O | 1 |
| O=C(NCCc1ccc(O)cc1)c1ccc2n[nH]c(=O)n2c1 | -20 |
| CCc1nnc(NC(=O)C2(C)COC(c3ccccc3)OC2)s1 (stereo not given) | 5 |
| Cc1nc(NC(=O)NCCn2ncnn2)sc1C | 10 |
| CC1=CC(C2CC(=O)N(c3ccc(Cl)cc3)C2=O)CC2C(=O)N(c3ccc(Cl)cc3)C(=O)C12 (stereo not given) | 2 |
| Cn1cnnc1NC(=O)[C@@H]1CC=CCC1 | 3 |
| N#Cc1cnn2ccc(-c3ccc4c(c3)CCC4)nc12 | -2 |
| Cn1c(=O)c2ccnn2c2ccc(C(=O)NC3CCN(Cc4ccccc4)CC3)cc21 | 11 |
| C[C@@H](c1cccs1)N(C)C(=O)CN1C(=O)COc2ccccc21 | 2 |
| CN1CCN(CCc2nc(-c3ccc4cc[nH]c4c3)no2)CC1 | 2 |
| O=C1CCC(C(=O)N2CCC[C@H]2c2ccncc2)=NN1c1ccccc1 | -11 |
| Cc1ccc(-c2csc(N3C(=O)CC4CS(=O)(=O)CC43)n2)cc1C (stereo not given) | 9 |
| Cc1cc(N2CCO[C@@H](Cn3cccn3)C2)c2ccc(F)c(F)c2n1 | 5 |

| SMILES | % Inhibition [%] |
| --- | --- |
| NC(=O)CN1CC2(CCCCC2)N(Cc2c(F)cccc2Cl)CC1=O | -10 |
| CCC1=C(c2ccc(C)cc2)S(=O)(=O)N=C1N1CCC(C(=O)NCCN2CCCC[C@@H]2C)CC1 | 38 |
| Brc1ccc(NCc2[nH]nnc2-c2ccccc2)cc1 | 14 |
| Cc1cccc(N2CCN(C(=O)CCC3=Nc4cc(C(F)(F)F)ccc4S(=O)(=O)N3)CC2)c1C | 12 |
| CCOC(=O)N1CCN(C(=O)c2cnn3c(-c4ccc(C(C)C)cc4)ccnc23)CC1 | -5 |
| Cn1cc(C(=O)N2N=CC[C@]2(O)C(F)(F)F)cn1 | 4 |
| O=C(N[C@H](c1ccccc1)C1CC1)N1CCN(S(=O)(=O)c2cccc(F)c2)CC1 | 10 |
| CC1(C)CCC(Nc2ccc(C(N)=O)nn2)CC1 | 92 |
| CNc1nc(N2C[C@H](C)[C@@](O)(C3CC3)C2)nc2c1CCC2 | 1 |
| Cc1onc(C(=O)N2CCC3(CC2)CC[C@]3(C)O)c1Cn1cccn1 | 7 |
| O=C(Cn1c(=O)n(Cc2ccco2)c(=O)c2ccccc21)Nc1cccc(Br)c1 | 9 |
| O=C(CCC1CCCCC1)Nc1ncccn1 | -9 |
| Cc1cccc(OC[C@@H](O)Cn2cnc(C)c(C)c2=O)c1 | 5 |
| Oc1csc(Cc2nc(C(F)(F)F)cs2)n1 | -4 |
| CC(C)(C)c1ccnc(N[C@H]2CO[C@H]3[C@@H]2OC[C@@H]3NC(=O)NCc2ccccc2)n1 | 9 |
| CC1CCN(c2nc3c(c(Oc4cccc(F)c4)n2)CN(Cc2ccccn2)CC3)CC1 | 21 |
| COCCCN1CC(=O)N[C@@H]2CN(C(=O)CCc3cccnc3)CC[C@@H]2OCc2cccc(c2)Oc2cc(ccc2OC)C1 | 11 |
| COCc1cc(C)n(CC#N)c(=O)c1C#N | 16 |
| Cc1ccc(NC(=O)c2c(C)nc3sc(C(=O)NCc4ccccc4)c(N)c3c2-c2ccccc2Cl)c(C)c1 | 87 |
| Cc1cccc(Nc2nc(-c3cnc(N4CCN(C)CC4)nc3C)cc(=O)[nH]2)c1 | 4 |
| CCn1c(-c2cc(NC(=O)c3ccc4c(c3)OCO4)[nH]n2)cc2ccc(OC)cc21 | 4 |
| O=S(=O)(c1ccc(Cl)s1)N1CCC(N2CCc3sccc3C2)CC1 | 44 |
| CC(C)C(NC(=O)COc1ccccc1)C(=O)NCC(c1ccccc1Cl)c1c[nH]c2ccccc12 (stereo not given) | 36 |
| CCC[C@H](C)c1nc(N2CCN(C(=O)Cc3ccc(OC)cc3)CC2)c2cnn(-c3ccccc3)c2n1 | 9 |
| CCN(CC)c1ccc(NS(=O)(=O)c2ccc(N3C(=O)[C@@H](C)CS3(=O)=O)cc2)cc1 | 9 |
